Some entries share one result that the patent states for a list of compounds.
Legend:
[1] = Stability test by HPLC in DMSO or DMEM media with or without fetal bovine serum; format: in vitro ADME; conditions: 40 μM, DMEM media with 10% FBS; for degraded (HPLC purity change): over 12 hours
Description: “Serum stability” refers to the stability of a compound in media or culture that includes serum. The serum as used herein may include, but is not limited to, fetal bovine serum (FBS). Serum stability of a compound as used herein generally may be characterized by the extent of degradation of such compound in a serum over a period of time. For example, a compound may degrade by less than 25%, less than 20%, less then 15%, or even less than 10% in FBS over a period of 24 hours or longer. For live cell assays, serum (such as FBS) is a component to maintain cell health. The degree of degradation of the disclosed compounds or the other pro-coelenterazine analogues in DMSO control, or DMEM media with/without FBS, can be monitored by HPLC using specific elution solvent/buffer (e.g. 0.1% TFA and acetonitrile) under the same condition at certain time of points. The percentage of purity can be calculated by the peak area of the tested compound divided by the total peak areas including tested compound and degradation compounds at their corresponding retention time at certain absorbance wavelength (e.g. 260 nm) at certain time point in media with/without FBS. The changes of purity for a given compound over time indicate the degree of instability of the compound in media/culture with/without serum.
The tested compounds were dissolved in DMSO stock at a concentration of 20 mM. The stock solution was further diluted to 40 μM in DMSO control or DMEM media with/without FBS. Three 40 uM dilutions of each compound were measured by HPLC using specific elution solvent/buffer (e.g. 0.1% TFA and acetonitrile) under the same conditions over 24 hours. The percentage of purity at certain time points was calculated by the peak area of the tested compound divided by the total peak areas of all the compounds including the tested compound and degradation compounds at their corresponding retention time at 260 nm. The changes of purity of the tested compound over time indicated the degree of instability of the compound in a specific environment with/without 10% of FBS. […] (FIGS. 2A-2I).

[2] = tested on: CMV promoter-NanoLuc® gene transfected HEK293 cells; assay: Live cell reporter gene assay, luminescent signal decay over time with/without porcine liver esterase (PLE); format: cell-based; conditions: DMEM, 10% FBS; without exogenous PLE esterase
Description: The synthesized pro-coelenterazine or pro-furimazine compounds were evaluated in a live cell reporter gene assay. As shown in FIGS. 3A-C, the luminescent signal decays were monitored over time in HEK293 cells in DMEM media with 10% FBS transfected with 10 ng/well of CMV promoter-NanoLuc® gene with/without adding exogenous esterase porcine liver esterase (PLE) with three representative pro-coelenterazine analogues, e.g. serum instable compound WZ-0308, traditional live cell pro-substrate PBI-4377, and disclosed serum stable compound WZ-0324. The evaluations were performed by the following protocol.
Day 1: Plate cells. HEK293 cells were grown in complete medium (DMEM+10% FBS+1× Non-Essential Amino Acids (NEAA)). The cells were harvested at passasge 6 (˜95% confluent), by a procedure of: washing with DPBS, treating the cells with TrypLE Express until cells dislodged, adding 4× volumes of complete medium, pelleting at 188×g for 2 minutes, and suspending the cells in complete medium to 7.35E4 cells/mL. The cells were plated 100 μL per well into the inner 60 wells of 96-well plates (7,350 cells per well): 100 μL DPBS in the 36 outside wells and 100 μL DPBS between wells. The cells were than incubated overnight at 37° C., 5% CO2.
Day 2: Transfection. Two two master mixes (MM) were made: MM#1: 1.63 μL prep #1; 9.5 μL prep #3; 1.9 mL OM1; and MM#2: 2.9 uL prep #2; 9.5 μL prep #3; 1.9 mL OM1. […]

[3] = tested on: HEK 293 cells transiently transfected with SmBiT-PRKACA and LgBiT-PRKAR2A; assay: Live cell assay, luminescent signal decay over time in HEK293 cells expressing the PKA NanoBiT pair; format: cell-based; conditions: DMEM, 4% FBS
Description: Compounds WZ-0429, WZ-0439, WZ-0454, WZ-0441, WZ-0451. WZ-0416, WZ-0420, WZ-0461 and WZ-0419 were tested in HEK 293 cells transiently transfected plasmid DNA constructs for SmBiT-PRKACA and LgBiT-PRKAR2A expressed via the HSV-TK promoter in DMEM media with 4% FBS, and the luminescent signal decays were monitored over time. […] In contrast, the serum instable compounds, WZ-0429. […] The evaluations of compounds WZ-0429, WZ-0439, WZ-0454, WZ-0441, WZ-0451. WZ-0416, WZ-0420, WZ-0461 and WZ-0419 were performed by the following protocol.
Day 1, plate cells. HEK293 cells were grow in complete medium [DMEM+10% FBS+1× NEAA]. Cells were plated at approximately 10,000 cells per well (100 μL) in 96-well plates (Corning 3917).
Day 2, transient transfection. Plasmid DNA constructs for SmBiT-PRKACA and LgBiT-PRKAR2A expressed via the HSV-TK promoter were diluted to 6.25 ng/μL in Opti-MEM® I and FuGENE HD was added at a 3:1 lipid:DNA ratio. After a 5-10 minute incubation at room temperature, 8 μl of lipid:DNA solution was added per well, and cells were incubated in a 37° C., 5% CO2 incubator overnight.
Day 3, live cell assay. Compounds were dissolved to 50 mM final in DMSO. Compounds were diluted in DMSO to give 33.3, 16.7 and 6.7 mM stocks. DMSO stock solutions were diluted 667-fold in Opti-MEM® I to give 1× solutions. Complete medium was aspirated and replaced with the respective 1× solution containing 75, 50, 25 or 10 uM of the respective compounds (0.15% v/v DMSO final), such as WZ-0429, WZ-0439, WZ-0454, WZ-0441WZ-0451, WZ-0416, WZ-0420 and WZ-0419, but containing 40, 30, 20 or 10 μM as an instead for compound WZ-0461. Luminescence was measured on a GloMax Multi Plus luminometer every 15 minutes at 37° C. using a 1 second integration time.

[4] = less dependent on the concentration

Structure (SMILES) | degradation (HPLC purity change) ([1]; after 5 hours) [%] | degraded (HPLC purity change) [1] [%] | degradation (HPLC purity change) ([1]; 10 hours) [%] | further results
CC(=O)OCOc1c(Cc2ccco2)nc2c(Cc3ccccc3)nc(-c3ccccc3)cn12 [WZ-0308] | ≥ 50 | > 80 |  | 
COCCC(=O)OCOc1c(Cc2ccco2)nc2c(Cc3ccccc3)nc(-c3ccccc3)cn12 [WZ-0310] | ≥ 50 | > 80 |  | 
COCCOCCOCCOCCOCCC(=O)OCOc1c(Cc2ccco2)nc2c(Cc3ccccc3)nc(-c3ccccc3)cn12 [WZ-0315] | ≥ 50 | > 80 |  | 
COCC(C)(C)C(=O)OCOc1c(Cc2ccco2)nc2c(Cc3ccccc3)nc(-c3ccccc3)cn12 [WZ-0323, ((8-benzyl-2-(furan-2-ylmethyl)-6-phenylimidazo[1,2-a]pyrazin-3-yl)oxy)methyl 3-methoxy-2,2-dimethylpropanoate] |  |  | < 20 | 
COCCOCCOCC(C)(C)C(=O)OCOc1c(Cc2ccco2)nc2c(Cc3ccccc3)nc(-c3ccccc3)cn12 [WZ-0324, ((8-benzyl-2-(furan-2-ylmethyl)-6-phenylimidazo[1,2-a]pyrazin-3-yl)oxy)methyl 3-(2-(2-methoxyethoxy)ethoxy)-2,2-dimethylpropanoate] |  |  | < 20 | duration of stable luminescent signal [2]: ≥ 24 h
COCCOCCOCCOCC(C)(C)C(=O)OCOc1c(Cc2ccco2)nc2c(Cc3ccccc3)nc(-c3ccccc3)cn12 [WZ-0336, ((8-benzyl-2-(furan-2-ylmethyl)-6-phenylimidazo[1,2-a]pyrazin-3-yl)oxy)methyl 13,13-dimethyl-2,5,8,11-tetraoxatetradecan-14-oate] |  |  | < 20 | 
O=C(OCOc1c(Cc2ccco2)nc2c(Cc3ccccc3)nc(-c3ccccc3)cn12)c1ccccc1 [WZ-0416, ((8-benzyl-2-(furan-2-ylmethyl)-6-phenylimidazo[1,2-a]pyrazin-3-yl)oxy)methyl benzoate] |  |  | < 20 | duration of stable luminescent signal [3, 4]: ≥ 24 h
COC(=O)OCOc1c(Cc2ccco2)nc2c(Cc3ccccc3)nc(-c3ccccc3)cn12 [WZ-0419, ((8-benzyl-2-(furan-2-ylmethyl)-6-phenylimidazo[1,2-a]pyrazin-3-yl)oxy)methyl methyl carbonate] |  |  | < 20 | 
O=C(OCOc1c(Cc2ccco2)nc2c(Cc3ccccc3)nc(-c3ccccc3)cn12)c1ccco1 [WZ-0420, ((8-benzyl-2-(furan-2-ylmethyl)-6-phenylimidazo[1,2-a]pyrazin-3-yl)oxy)methyl furan-2-carboxylate] |  |  | < 20 | duration of stable luminescent signal ([3]; concentration above 20 uM): ≤ 15 h
O=C(OCOc1c(Cc2ccco2)nc2c(Cc3ccccc3)nc(-c3ccccc3)cn12)C1CCCO1 (stereo not shown) [WZ-0429] | ≥ 50 | > 80 |  | 
O=C(OCOc1c(Cc2ccco2)nc2c(Cc3ccccc3)nc(-c3ccccc3)cn12)C1CCOC1 (stereo not shown) [WZ-0439] | ≥ 50 | > 80 |  | 
C=CCOC(=O)N1CCC(C(=O)OCOc2c(Cc3ccco3)nc3c(Cc4ccccc4)nc(-c4ccccc4)cn23)C1 (stereo not shown) [WZ-0441] | ≥ 50 | > 80 |  | 
COC(C)(C)C(=O)OCOc1c(Cc2ccco2)nc2c(Cc3ccccc3)nc(-c3ccccc3)cn12 [WZ-0451, ((8-benzyl-2-(furan-2-ylmethyl)-6-phenylimidazo[1,2-a]pyrazin-3-yl)oxy)methyl 2-methoxy-2-methylpropanoate] |  |  | < 20 | duration of stable luminescent signal ([3]; concentration above 20 uM): ≤ 15 h
COC(OC)C(=O)OCOc1c(Cc2ccco2)nc2c(Cc3ccccc3)nc(-c3ccccc3)cn12 [WZ-0454] | ≥ 50 | > 80 |  | 
O=C(OCOc1c(Cc2ccco2)nc2c(Cc3ccccc3)nc(-c3ccccc3)cn12)c1ccoc1 [WZ-0461, ((8-benzyl-2-(furan-2-ylmethyl)-6-phenylimidazo[1,2-a]pyrazin-3-yl)oxy)methyl furan-3-carboxylate] |  |  | < 20 | duration of stable luminescent signal [3, 4]: ≥ 24 h
CC(=O)NC(C)(C)C(=O)OCOc1c(Cc2ccco2)nc2c(Cc3ccccc3)nc(-c3ccccc3)cn12 [WZ-0467, ((8-benzyl-2-(furan-2-ylmethyl)-6-phenylimidazo[1,2-a]pyrazin-3-yl)oxy)methyl 2-acetamido-2-methylpropanoate] |  |  | < 20 | 

Source: patent publication US10836767B2, “Serum stable pro-coelenterazine analogues” (PROMEGA CORPORATION, priority 2017, dated 2020)
